Data as given in PubChem BioAssay (NCI).
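Where inhibition never reached the appropriate level, the endpoint shown equals the highest concentration tested. Otherwise, values were interpolated linearly from a five-concentration, 48-hour dose response in 96-well plates. GI50 is the concentration that inhibits growth by half.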 For part of its entries the source gives two or more results. The list is limited to them. There may be further records. For some assays here: Values that stand side by side are repeated measurements in other runs, samples, wells, individuals or studies. Brackets tell where a record comes from. The letters are not those of the source and start again with each entry.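 TGI marks complete inhibition of growth.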 For some assays here: Records of one sample usually come from different ranges of test concentrations, not given here; a value can be the end of its range. *1 amine or outer side, *2 acyl side, *3 side chain or, on linkers, in order; H or OH if unused. Where a SMILES comes first, the peptide text is derived from it. Bridges are numbered along the chain shown (N, C = ends). [ ]: non-standard residue; d: D form. ξ: configuration not given here. X4 = CCC(C)C(N[*:1])C(O)CC(=O)O[C@H](C(=O)C(C)C(=O)[*:2])C(C)C; NMeY = CN[C@@H](Cc1ccc(O)cc1)C(=O)O; X3 = O=C([C@@H]1CC(O)CN1[*:1])[*:2]; ξNMeL = CNC(CC(C)C)C(=O)O; ξT = CC(O)C(N)C(=O)O

Legend:
Test in all cases: inhibition of tumour cell growth, NCI panel, 48 h
HOP-62 NSCLC = test system: HOP-62 NSCLC
HS 578T breast = test system: HS 578T breast
NCI-H226 lung = test system: NCI-H226 lung
NCI-H522 lung = test system: NCI-H522 lung
OVCAR-3 ovarian = test system: OVCAR-3 ovarian
OVCAR-8 ovarian = test system: OVCAR-8 ovarian
SF-539 CNS = test system: SF-539 CNS
SK-OV-3 ovarian = test system: SK-OV-3 ovarian
SN12C renal = test system: SN12C renal
SNB-19 CNS = test system: SNB-19 CNS
OVCAR-5 ovarian = test system: OVCAR-5 ovarian
UACC-62 melanoma = test system: UACC-62 melanoma
CCRF-CEM leukemia = test system: CCRF-CEM leukemia
HCT-116 colon = test system: HCT-116 colon
HL-60(TB) leukemia = test system: HL-60(TB) leukemia
MCF7 breast = test system: MCF7 breast
MDA-MB-231 breast = test system: MDA-MB-231 breast
RPMI-8226 leukemia = test system: RPMI-8226 leukemia
K-562 leukemia = test system: K-562 leukemia
KM12 colon = test system: KM12 colon
SR leukemia = test system: SR leukemia

For `COC(=O)/C=C/c1cc(OC)c2c(c1)C(C(=O)OC)C(c1ccc(OC)c(OC)c1)O2` (stereo not drawn), the GI50 (HOP-62 NSCLC) was > 100 µM [sample A, 1 test] and 6.46 µM [sample B, mean of 2 tests], the TGI (HS 578T breast) was > 100 µM [sample A, 1 test] and 5.96 µM [sample B, 1 test] and the GI50 (NCI-H226 lung) was > 100 µM [sample A, 1 test] and 2.86 µM [sample B, mean of 2 tests]. The GI50 (NCI-H522 lung) was > 100 µM [sample A, 1 test] and 3.8 µM [sample B, mean of 2 tests], the GI50 (OVCAR-3 ovarian) was > 100 µM [sample A, 1 test] and 2.29 µM [sample B, mean of 2 tests] and the GI50 (OVCAR-8 ovarian) was > 100 µM [sample A, 1 test] and 6.28 µM [sample B, mean of 2 tests]. The GI50 (SF-539 CNS) was > 100 µM [sample A, 1 test] and 1.82 µM [sample B, mean of 2 tests], the TGI (SF-539 CNS) was > 100 µM [sample A, 1 test] and 7.12 µM [sample B, mean of 2 tests] and the GI50 (SK-OV-3 ovarian) was > 100 µM [sample A, 1 test] and 5.5 µM [sample B, mean of 2 tests]. The GI50 (SN12C renal) was > 100 µM [sample A, 1 test] and 6.5 µM [sample B, mean of 2 tests] and the GI50 (SNB-19 CNS) was > 100 µM [sample A, 1 test] and 2.09 µM [sample B, mean of 2 tests].

In the case of `Cn1cnc2c(F)c(Nc3ccc(Br)cc3Cl)c(C(=O)NOCCO)cc21`, the GI50 (OVCAR-5 ovarian) is reported as 765 nM [sample A, mean of 3 tests] and 32.3 nM [sample B, mean of 2 tests] and the TGI (UACC-62 melanoma) is reported as > 20.1 µM [sample A, mean of 3 tests] and 188 nM [sample B, 1 test].

In the case of `CCC(C)C1NC(=O)C(NC(=O)C(CC(C)C)N(C)C(=O)[C@@H]2CC(O)CN2)C(C)OC(=O)[C@H](Cc2ccc(OC)cc2)N(C)C(=O)[C@@H]2CCCN2C(=O)[C@H](CC(C)C)NC(=O)C(C)C(=O)[C@H](C(C)C)OC(=O)CC1O` (stereo partly drawn) (H-[X3][ξNMeL][ξT][X4]LP[NMeY](Me); ester 3-C), the TGI (CCRF-CEM leukemia) is reported as 415 nM and 35 nM, the TGI (HCT-116 colon) is reported as 111 nM and 1.82 µM and the TGI (HL-60(TB) leukemia) is reported as 104 nM and > 100 µM. For the same compound, the TGI (MCF7 breast) was 166 nM and > 100 µM, the TGI (MDA-MB-231 breast) was 160 nM and 2.47 µM and the TGI (RPMI-8226 leukemia) was 90.1 nM and > 100 µM.

For `COc1cc(N2CCC(N(C)C)CC2)ccc1Nc1ncc(Cl)c(Nc2ccccc2P(C)(C)=O)n1`, the GI50 (CCRF-CEM leukemia) was 3.27 µM [sample A, mean of 2 tests] and 238 nM [sample B, mean of 2 tests], the GI50 (K-562 leukemia) was 3.32 µM [sample A, mean of 2 tests] and 269 nM [sample B, mean of 2 tests] and the GI50 (KM12 colon) was 2.93 µM [sample A, mean of 2 tests] and 128 nM [sample B, mean of 2 tests]. The TGI (SR leukemia) was > 28.5 µM [sample A, mean of 2 tests] and 2.37 µM [sample B, 1 test].
